Data on 1 protein can be found in ChEMBL document CHEMBL1156245, “Structure-activity relationships for substrate-based inhibitors of human complement factor B” (J Med Chem, 2009).

By Km is commonly meant the substrate concentration at which the rate is half of its maximum.

Substrate in this data set: CC(=O)N[C@@H](CO)C(=O)N[C@@H](Cc1cnc[nH]1)C(=O)N[C@@H](CC(C)C)C(=O)NCC(=O)N[C@@H](CC(C)C)C(=O)N[C@@H](C)C(=O)N[C@@H](CCCNC(=N)N)C(=O)Nc1ccc([N+](=O)[O-])cc1
The data set can be described thus: Activity at human complement factor B by chromogenic assay.

B1: Complement factor B (Homo sapiens), P00751 (protein)
chain: MGSNLSPQLCLMPFILGLLSGGVTTTPWSLARPQGSCSLEGVEIKGGSFRLLQEGQALEYVCPSGFYPYPVQTRTCRSTGSWSTLKTQDQKTVRKAECRAIHCPRPHDFENGEYWPRSPYYNVSDEISFHCYDGYTLRGSANRTCQVNGRWSGQTAICDNGAGYCSNPGIPIGTRKVGSQYRLEDSVTYHCSRGLTLRGSQRRTCQEGGSWSGTEPSCQDSFMYDTPQEVAEAFLSSLTETIEGVDAEDGHGPGEQQKRKIVLDPSGSMNIYLVLDGSDSIGASNFTGAKKCLVNLIEKVASYGVKPRYGLVTYATYPKIWVKVSEADSSNADWVTKQLNEINYEDHKLKSGTNTKKALQAVYSMMSWPDDVPPEGWNRTRHVIILMTDGLHNMGGDPITVIDEIRDLLYIGKDRKNPREDYLDVYVFGVGPLVNQVNINALASKKDNEQHVFKVKDMENLEDVFYQMIDESQSLSLCGMVWEHRKGTDYHKQPWQAKISVIRPSKGHESCMGAVVSEYFVLTAAHCFTVDDKEHSIKVSVGGEKRDLEIEVVLFHPNYNINGKKEAGIPEFYDYDVALIKLKNKLKYGQTIRPICLPCTEGTTRALRLPPTTTCQQQKEELLPAQDIKALFVSEEEKKLTRKEVYIKNGDKKGSCERDAQYAPGYDKVKDISEVVTPRFLCTGGVSPYADPNTCRGDSGGPLIVHKRSRFIQVGVISWGVVDVCKNQKRQKQVPAHARDFHINLFQVLPWLKEKLQDEDLGFL
Regarding B1, the Michaelis-Menten constant (Km) amounted to 1000 µM.
